{
  "source": "PubChem BioAssay AID493208",
  "about": "(National Center for Advancing Translational Sciences (NCATS), 2011)",
  "note": "Screen size: about 44,000 compounds; about 340 (0.77%) were called active. Roughly 5% stayed inconclusive and do not appear here. Calls come from the whole dose curve; as a rule, active = well fitted inhibition curve with a large enough effect; inconclusive = small, poorly fitted or top-dose-only effect; inactive = flat fitted curve, though single readings scatter. This is one part of the list.",
  "data": [
    {"test": "Acumen qHTS Assay for Inhibitors of the mTORC1 Signaling Pathway in MEF (Tsc2-/-, p53-/-) Cells: Sytravon;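 note: plate controls were DMSO for no effect and rapamycin for full effect; nearly all actives have a fitted effect of over 50% in size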", "conditions": "phospho-rpS6 immunofluorescence/PI, 24 h; series mostly up to 38.3 µM; activity change, negative = inhibition: at the top concentration", "outline": "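Plate MEFs (Tsc2-/-, p53-/-, empty vector) in DMEM/10% FBS; after 24 h add compound, incubate 24 h at 37 degree Celsius; fix in PFA/TX-100, block, stain phospho-rpS6 and 10 uM PI; scan at 488 nm; report % positive cells.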", "values": [
      {"smiles": "CCOc1cccc2cc(-c3cn4c(n3)sc3ccccc34)c(=O)oc12", "activity change, negative = inhibition": "inactive: -1.52%"},
      {"smiles": "Cc1ccc(CNC(=O)CSc2nnc(C)c3c(C)n(-c4ccccc4)nc23)cc1", "activity change, negative = inhibition": "inactive: -13.2%"},
      {"smiles": "CC1CCN(S(=O)(=O)c2ccc3c(ccc(=O)n3CC(=O)NCc3ccccc3Cl)c2)CC1", "activity change, negative = inhibition": "inactive: 0.4%"},
      {"smiles": "COc1ccc(NC(=O)CSC2=Nc3ccccc3N=C(c3ccc(F)cc3)C2)cc1OC", "activity change, negative = inhibition": "inactive: -0.0481%"},
      {"smiles": "CCN(C(=O)CCNC(=O)Cn1cnc2ccccc2c1=O)c1cc(OC)ccc1OC", "activity change, negative = inhibition": "inactive: 4.49%"},
      {"smiles": "Cc1ccc2c(c1)c1c(c(=O)n(-c3ccccc3C)c(=O)n1CC(=O)c1ccc(Cl)cc1)n2C", "activity change, negative = inhibition": "inactive: 0.441%"},
      {"smiles": "O=S(=O)(c1ccc(Cl)cc1)c1nnn2c1nc(NC1CCCCC1)c1sccc12", "activity change, negative = inhibition": "inactive: -3.13%"},
      {"smiles": "CCC1CN(C(=O)N2CCC(C(=O)NCc3cc(OC)c(OC)c(OC)c3)CC2)c2ccccc2O1", "note": "(stereo not drawn)", "activity change, negative = inhibition": "inactive: 5.08%"},
      {"smiles": "CN(C)c1ccc(NC(=O)Cn2nnc3sc4c(c3c2=O)CCC(C(C)(C)C)C4)cc1", "note": "(stereo not drawn)", "activity change, negative = inhibition": "inactive: 2.07%"},
      {"smiles": "CCSc1ncc(Cl)c(C(=O)Nc2nc3ccc(Cl)cc3s2)n1", "activity change, negative = inhibition": "inactive: -3.57%"},
      {"smiles": "CN(C)c1ccc(CNC(=O)CN2C(=O)CSc3ccc(S(=O)(=O)N4CCCC4)cc32)cc1", "activity change, negative = inhibition": "inactive: 0.377%"},
      {"smiles": "Cc1cccc(NC(=O)c2oc3ccccc3c2NC(=O)c2cc(=O)c3ccc(C)cc3o2)c1", "activity change, negative = inhibition": "inactive: 4.21%"},
      {"smiles": "Cc1cc(NC(=O)CCc2nc3cccnc3n2Cc2cccs2)ccc1Br", "activity change, negative = inhibition": "inactive: -13.3%"},
      {"smiles": "Cc1ccc(-n2c(=O)c3c(cnn3C)n(Cc3ccc(Cl)cc3)c2=O)cc1", "activity change, negative = inhibition": "inactive: -1.71%"},
      {"smiles": "CCc1ccc(NC(=O)N(Cc2c[nH]c3ccccc23)C2CCCCC2)cc1", "activity change, negative = inhibition": "inactive: -0.696%"},
      {"smiles": "CCOc1ccc(CNC(=O)c2ccc3[nH]c(C)c(C)c3c2)cc1OC", "activity change, negative = inhibition": "inactive: -0.393%"},
      {"smiles": "CCOc1cc(C(=O)Nc2ccc(NC(=O)c3cc4ccccc4o3)c(OC)c2)cc(OCC)c1OCC", "activity change, negative = inhibition": "inactive: 21.6%"},
      {"smiles": "Cc1ccc(NC(=O)Nc2c[nH]c(=O)[nH]c2=O)c(Cl)c1", "activity change, negative = inhibition": "inactive: 3.97%"},
      {"smiles": "CCOc1ccc2nc(N3CCCC(C(=O)Nc4cc(C)ccc4C)C3)sc2c1", "note": "(stereo not drawn)", "activity change, negative = inhibition": "inactive: -5.91%"},
      {"smiles": "Cc1ccc(NS(=O)(=O)c2cc(-c3cc(C)no3)ccc2C)c(Cl)c1", "activity change, negative = inhibition": "inactive: -1.01%"},
      {"smiles": "CCc1ccccc1NC(=O)CSc1nnc(-c2ccc(OC)cc2)s1", "activity change, negative = inhibition": "inactive: -6.99%"},
      {"smiles": "CC(=O)Nc1ccc(NC(=O)C2CCN(S(=O)(=O)c3ccc4c(c3)CCCC(=O)N4)CC2)cc1", "activity change, negative = inhibition": "inactive: 0.931%"},
      {"smiles": "O=c1c2ccccc2n(Cc2c(F)cccc2Cl)c(=O)n1CCc1ccccc1", "activity change, negative = inhibition": "inactive: -19.2%"},
      {"smiles": "Cc1cc2c(cc3c(SCc4ccc(Cl)cc4)nncn32)o1", "activity change, negative = inhibition": "inactive: 1.07%"},
      {"smiles": "COc1ccc(C)cc1NC(=O)c1cnc2ccc(C)cn2c1=O", "activity change, negative = inhibition": "inactive: -3.74%"},
      {"smiles": "COCCNC(=O)CCCn1c(SCC(=O)c2ccc(Br)cc2)nc2c(sc3ccccc32)c1=O", "activity change, negative = inhibition": "inactive: -3.89%"},
      {"smiles": "Cc1ccn2c(=O)cc(COc3ccc(NC(=O)COc4ccc(C)c(C)c4)cc3)nc2c1", "activity change, negative = inhibition": "inactive: 3.35%"},
      {"smiles": "CCOc1cc(C2c3c(oc4ccccc4c3=O)C(=O)N2Cc2ccc(OC)cc2)ccc1O", "note": "(stereo not drawn)", "activity change, negative = inhibition": "inactive: -10.3%"},
      {"smiles": "Cc1cccc(Nc2c(-c3ccsc3)nc3nc(C)cc(C)n23)c1", "activity change, negative = inhibition": "inactive: 2.87%"},
      {"smiles": "O=C(CCCCn1c(=O)c2ccccc2n(Cc2cccc(F)c2)c1=O)NCc1ccc2c(c1)OCO2", "activity change, negative = inhibition": "inactive: -29.5%"},
      {"smiles": "O=C(O)c1ccc2nc(-c3cc4cc(Cl)ccc4oc3=O)[nH]c2c1", "activity change, negative = inhibition": "inactive: -4.34%"},
      {"smiles": "Cc1ccc(C(=O)c2oc3ccccc3c2NC(=O)Cc2coc3ccc(C)cc23)cc1", "activity change, negative = inhibition": "inactive: 3.45%"},
      {"smiles": "CCOC(=O)c1c(C)[nH]c(C)c1S(=O)(=O)N(C)CC(=O)NCc1ccc(Cl)cc1", "activity change, negative = inhibition": "inactive: -8.65%"},
      {"smiles": "Cc1ccc(-c2nc3c4ccccc4n(CC(=O)NCc4ccc(F)cc4)c(=O)n3n2)cc1", "activity change, negative = inhibition": "inactive: 0.711%"},
      {"smiles": "CCc1nn(CC(=O)NCCCN(CC)CC)c(=O)c2cc3occc3n12", "activity change, negative = inhibition": "inactive: -2.82%"},
      {"smiles": "COc1cccc(CNC(=O)CN2C(=O)N(c3ccc(C)cc3C)S(=O)(=O)c3ccccc32)c1OC", "activity change, negative = inhibition": "inactive: -2.91%"},
      {"smiles": "Cn1c(SCC(=O)Nc2nc3ccccc3s2)ncc(C(=O)Nc2ccccc2)c1=O", "activity change, negative = inhibition": "inactive: -3.4%"},
      {"smiles": "COc1ccc(C)cc1-n1cnc2cc(C(=O)NC3CCCCCC3)ccc21", "activity change, negative = inhibition": "inactive: -13.5%"},
      {"smiles": "O=C1COc2cc(S(=O)(=O)CCC(=O)NC3CCCCC3)c(Cl)cc2N1", "activity change, negative = inhibition": "inactive: -3.24%"},
      {"smiles": "Cc1ccc2onc(CNC(=O)NCc3ccc(Cl)cc3)c2c1", "activity change, negative = inhibition": "inactive: 3.74%"},
      {"smiles": "CCOc1ccc(CCNC(=O)CCCc2nnc3n(CC)c(=O)c4sccc4n23)cc1", "activity change, negative = inhibition": "inactive: 1.96%"},
      {"smiles": "CCSc1ncc(Cl)c(C(=O)Nc2c(C(=O)Nc3ccccc3)oc3ccccc23)n1", "activity change, negative = inhibition": "inactive: 2.49%"},
      {"smiles": "O=C(CSc1nccn1-c1cccc(Cl)c1)Nc1cccc2ccccc12", "activity change, negative = inhibition": "inactive: -5.34%"},
      {"smiles": "COc1cccc(C(=O)Nc2cccc(-c3nc4ncccn4c3C)c2)c1", "activity change, negative = inhibition": "inactive: -17.8%"},
      {"smiles": "O=C(O)c1c(-c2ccccc2)oc2ccc(OCc3c(F)cccc3Cl)cc12", "activity change, negative = inhibition": "inactive: 2.54%"},
      {"smiles": "COc1ccc(-c2nc3cc(C)ccn3c2NC(=O)c2cccc(F)c2)cc1", "activity change, negative = inhibition": "inactive: 1.63%"},
      {"smiles": "COc1ccc(CCNC(=O)C2CCN(Cc3nc(-c4ccc(OC)c(OC)c4)oc3C)CC2)cc1OC", "activity change, negative = inhibition": "inactive: -12.1%"},
      {"smiles": "Cc1ccc(/C=C(\\C#N)C(=O)Nc2cccc(Cl)c2)o1", "activity change, negative = inhibition": "inactive: 2.29%"}
    ]}
  ]
}
